Laboratory results reported in PubChem BioAssay (NCATS).
The shares of active, inactive and inconclusive entries below differ from those in the screen. A potency beside an inconclusive call is a rough fit, not a confirmed value. Active and inactive are the calls of the source. The call rests on the fitted dose curve; in most records, active means well fitted inhibition curve with a large enough effect; inconclusive means small, poorly fitted or top-dose-only effect; inactive means no such curve, though single readings can be large or run the other way. Where a SMILES comes first, the peptide text is derived from it. [ ]: non-standard residue; d: D form. The star is where a group is joined. Nva = CCC[C@H](N)C(=O)O; Cbz = O=C(OCc1ccccc1)*

Assay: qHTS to identify inhibitors of the type 1 interferon - major histocompatibility complex class I in skeletal muscle: primary screen against the NCATS Mechanism Interrogation Plate v5.0 (MIPE) Libary (AID 1347411); further: nearly all actives have a fitted effect of over 65% in size;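 on activity change, negative = inhibition: plate controls were vehicle for no effect and reference inhibitor for full effect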
Settings: iHSKM cells + IFN-b, HiBiT-tagged MHC-I luminescence, 24 h; activity change, negative = inhibition: at 45.8 µM (top of the series)
How it was run: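 HLA-B HiBit myoblasts, dexamethasone-free medium + 4 ng/ml IFN-b, 24 h compound, 11-pt 1:3 from 46 uM final. Readout: Nano-Glo HiBiT lytic luminescence after 10 min lysis, RT.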
Potency means the concentration at half of the fitted maximal effect; tags describe the fitted curve by direction and shape.

Compound	Potency	activity change, negative = inhibition
NC(=NCCCCCCN=C(N)N=C(N)Nc1ccc(Cl)cc1)N=C(N)Nc1ccc(Cl)cc1	inconclusive: 37 µM [inhibitor, single point]	–
CN(C)c1ccccc1CN1CCCN(Cc2ccccc2N(C)C)C1c1ccncc1	inconclusive: 26.2 µM [inhibitor, single point]	–
Cc1ccc2c(=O)c3cccc(CC(=O)O)c3oc2c1C	–	inactive: 0.553%
COC(=O)[C@H](c1ccccc1Cl)N1CCc2sccc2C1	–	inactive: 15.9%
O=C1CN2Cc3c(ccc(Cl)c3Cl)N=C2N1	inconclusive: 0.0829 µM [inhibitor, full curve, poor fit]	–
Cc1ccccc1C(=O)c1ccc(Nc2ccc(Br)cc2N)cc1Cl	inconclusive: 41.5 µM [inhibitor, single point]	–
NCCCCNCCCN	inconclusive: 4.15 µM [inhibitor, partial curve, poor fit]	–
COc1cc(OC)c(NC(=O)Nc2cc(C)on2)cc1Cl	–	inactive: -21.8%
N#CC[C@H](C1CCCC1)n1cc(-c2ncnc3[nH]ccc23)cn1	–	inactive: -70.1%
CN1CCN(c2ccc3nc(-c4c(N)c5c(F)cccc5[nH]c4=O)[nH]c3c2)CC1	inconclusive: 7.39 µM [inhibitor, partial curve]	–
CCOc1cc(C(=O)Nc2ccc(Cl)c(-c3nc4ccccc4[nH]3)c2)cc(OCC)c1OCC	inconclusive: 29.4 µM [inhibitor, partial curve, poor fit]	–
CCCCCN(C)CCC(O)(P(=O)(O)O)P(=O)(O)O	–	inactive: -11.6% [at 5.1 µM]
CCC[C@@H](C=O)NC(=O)[C@H](CC(C)C)NC(=O)[C@H](CC(C)C)NC(=O)OCc1ccccc1 (Cbz-Leu-Leu-[Nva]-aldehyde)	inconclusive: 3.3 µM [inhibitor, full curve, poor fit]	–
CCn1c(-c2nonc2N)nc2c(C#CC(C)(C)O)ncc(OC[C@H]3CCCNC3)c21	inconclusive: 18.6 µM [inhibitor, partial curve]	–
NC(=O)Nc1cc(-c2cccc(F)c2)sc1C(=O)N[C@H]1CCCNC1	inconclusive: 13.1 µM [inhibitor, partial curve, poor fit]	–
CC(=O)O[C@H]1C(=O)[C@@]2(C)C([C@H](OC(=O)c3ccccc3)[C@]3(O)C[C@H](OC(=O)[C@H](O)[C@@H](NC(=O)c4ccccc4)c4ccccc4)C(C)=C1C3(C)C)[C@]1(OC(C)=O)CO[C@@H]1C[C@@H]2O (stereo partly specified)	–	inactive: -56.6%
COc1c(C)cnc(Cn2cnc3c(Cl)nc(N)nc32)c1C	inconclusive: 0.208 µM [inhibitor, full curve]	–
Nc1nc(F)nc2c1ncn2[C@@H]1O[C@H](CO)[C@@H](O)[C@@H]1O	–	inactive: 2.36%

Compound	Potency	activity change, negative = inhibition
CCOC(=O)[C@@H](N)CCC(=O)N[C@@H](CSCc1ccccc1)C(=O)N[C@@H](C(=O)OCC)c1ccccc1	inconclusive: 58.7 µM [inhibitor, single point]	–
CC(C)(C)OC(=O)Nc1ccc(-c2cc(C(=O)NCCCCCCC(=O)NO)no2)cc1	inconclusive: 13.1 µM [inhibitor, partial curve]	–
CCN(CC)CCCCNc1nc2cc(Cl)c(Cl)cc2nc1-c1ccc(-c2cccs2)s1	inconclusive: 46.6 µM [inhibitor, single point]	–
Cc1ccc(NC(=O)c2ccc(CN3CCN(C)CC3)cc2)cc1Nc1nc(-c2cccnc2)cs1	inconclusive: 20.8 µM [inhibitor, single point]	–
CCC(C(=O)O)C1CCC(C)C(C(C)C(O)C(C)C(=O)C(CC)C2OC3(C=CC(O)[C@@]4(CC[C@](C)(C5CC[C@@](O)(CC)C(C)O5)O4)O3)C(C)CC2C)O1 (stereo partly specified)	–	inconclusive: -40.4% [inhibitor]
O=C(Nc1cccc(Cl)c1)Nc1ncc(CCNc2ncnc3ccsc23)s1	inconclusive: 18.6 µM [inhibitor, partial curve, poor fit]	–
Cc1c(CN2CCN(S(C)(=O)=O)CC2)sc2c(N3CCOCC3)nc(-c3cnc(N)nc3)nc12	inconclusive: 0.208 µM [inhibitor, full curve]	–
COc1cc(OC2CCN(C)CC2)ccc1Nc1ncc2c(n1)n(C1CCCC1)c(=O)n2C	inconclusive: 46.6 µM [inhibitor, single point]	–
CC(C)(C)c1cc(C(C)(C)C)c(NC(=O)c2c[nH]c3ccccc3c2=O)cc1O	active: 23.4 µM	–
Nc1nccc(-c2ccc3noc(-c4ccc(Cl)cc4)c3c2)n1	inconclusive: 16.5 µM [inhibitor, partial curve, poor fit]	–
Cn1cnc(=N)c2[nH]cnc21	–	inactive: -3.44% [at 91.7 µM]
O=C(O)CCc1ccc(NCc2cccc(Oc3ccccc3)c2)cc1	–	inactive: 3.99%
Cc1[nH]nc2ccc(-c3cncc(OC[C@@H](N)Cc4ccccc4)c3)cc12	active: 1.86 µM	–
CN(C)CC(=O)N1CCC(c2ccc(NC(=O)c3ncc(C#N)[nH]3)c(C3=CCCCC3)c2)CC1	inconclusive: 4.66 µM [inhibitor, partial curve, poor fit]	–
CN1c2ccccc2C(=O)N2CCc3c([nH]c4ccccc34)C21 (stereo unspecified)	inconclusive: 10.4 µM [inhibitor, partial curve, poor fit]	–
CN1CCN(c2cc(C(=O)Nc3ccc4c(c3)-c3c(c(C(N)=O)nn3-c3ccc(F)cc3)CC4)c(Cl)cn2)CC1	active: 18.6 µM	–
CC(C)NC[C@@H](C(=O)N1CCN(c2ncnc3c2[C@H](C)C[C@H]3O)CC1)c1ccc(Cl)cc1	–	inactive: -23.8%
CNC1CCC(N(Cc2cccc(-c3ccncc3)c2)C(=O)c2sc3ccccc3c2Cl)CC1 (stereo unspecified)	inconclusive: 20.8 µM [inhibitor, single point]	–
